These are yes or no findings as the source states them, for the method shown. For some of these results: Binding seen in cells or lysates may run through a third protein. Some binding calls cover weakened binding; strength is not graded here. Sequences can lack the tags named with a protein.
Columns and labels:
[1] = target: T1, Myc-TCP2 (Arabidopsis thaliana) (UniProt Q93V43); assay: co-IP; extract of leaves of 35S::Myc-TCP2/WT Arabidopsis, dark 16 h, 50 μM MG132 4 h, then blue light (35 μmol m^-2 s^-1) for 0, 30 or 240 min; agarose conjugated with anti-Myc antibody, NEB buffer (20 mM HEPES pH 7.5, 40 mM KCl, 1 mM EDTA, 1% Triton X-100), 4 °C; blot with anti-CRY1
T1 sequence: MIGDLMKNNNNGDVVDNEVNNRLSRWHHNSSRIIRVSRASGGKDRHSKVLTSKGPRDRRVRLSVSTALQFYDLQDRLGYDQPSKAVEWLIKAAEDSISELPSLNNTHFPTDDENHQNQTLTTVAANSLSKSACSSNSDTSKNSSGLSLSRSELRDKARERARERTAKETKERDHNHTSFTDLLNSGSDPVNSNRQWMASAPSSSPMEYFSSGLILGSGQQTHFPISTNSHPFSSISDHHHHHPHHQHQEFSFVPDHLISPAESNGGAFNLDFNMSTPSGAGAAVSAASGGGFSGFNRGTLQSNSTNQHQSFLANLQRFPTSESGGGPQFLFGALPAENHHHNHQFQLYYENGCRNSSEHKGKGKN

Amino acid sequences for entries named in this document (tags omitted). A change or cut given only in a name is not applied to a line headed by its entry. Residues count along the entry.
UniProt Q43125: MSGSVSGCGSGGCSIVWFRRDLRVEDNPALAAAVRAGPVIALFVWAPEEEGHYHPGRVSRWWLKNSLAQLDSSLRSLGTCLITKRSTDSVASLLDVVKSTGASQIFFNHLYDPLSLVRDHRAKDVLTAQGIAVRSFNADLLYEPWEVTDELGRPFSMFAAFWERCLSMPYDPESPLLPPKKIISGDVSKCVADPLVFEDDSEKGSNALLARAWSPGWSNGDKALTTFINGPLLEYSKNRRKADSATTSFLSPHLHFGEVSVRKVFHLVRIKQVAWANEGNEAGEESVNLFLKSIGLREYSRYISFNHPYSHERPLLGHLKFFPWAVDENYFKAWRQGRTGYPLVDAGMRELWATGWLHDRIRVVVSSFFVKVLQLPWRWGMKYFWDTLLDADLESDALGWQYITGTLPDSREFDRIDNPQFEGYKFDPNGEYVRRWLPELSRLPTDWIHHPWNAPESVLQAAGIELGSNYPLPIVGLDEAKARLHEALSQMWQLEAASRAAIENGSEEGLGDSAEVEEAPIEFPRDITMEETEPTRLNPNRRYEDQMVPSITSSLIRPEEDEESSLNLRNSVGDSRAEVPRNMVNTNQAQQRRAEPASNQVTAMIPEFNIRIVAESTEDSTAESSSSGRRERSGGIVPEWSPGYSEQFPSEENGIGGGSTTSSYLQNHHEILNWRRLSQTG
CRY1N^515 (amino acids 1-515), GAL4 DNA-binding domain fusion: residues 1-515 of Q43125
CRY1N^505 (amino acids 1-505), BiFC fusion: residues 1-505 of Q43125

[2] = target: cryptochrome 1 (CRY1), GAL4 DNA-binding domain fusion (Arabidopsis) (UniProt Q43125); assay: condition: only red light (18 μmol m^-2 s^-1) or darkness for 4 h, without blue light; two-hybrid; same yeast, β-gal liquid assay in red light (18 μmol m^-2 s^-1) or darkness for 4 h, no blue light
[3] = target: cryptochrome 1 (CRY1), GAL4 DNA-binding domain fusion (Arabidopsis) (UniProt Q43125); assay: two-hybrid; blue-light-differentiated screen of a library of >1000 Arabidopsis transcription factors (AH109 with BD-CRY1 in pDEST32 mated with Y187 library clones); β-gal liquid assay in blue light (10, 25, 40 μmol m^-2 s^-1)
[4] = target: CRY1N^505 (amino acids 1-505), GAL4 DNA-binding domain fusion (Arabidopsis) (UniProt Q43125); assay: two-hybrid; BD fusions of CRY1 fragments in pDEST32 as bait, AD-TCP2 in pDEST22 as prey, co-transformed into AH109; auxotrophy on SD/-Trp/-Leu/-His/+10 mM 3-AT under blue, red, far-red light or darkness at 28 °C for 3 d; β-gal assay with CPRG
[5] = target: CRY1N^515 (amino acids 1-515), GAL4 DNA-binding domain fusion (Arabidopsis) (UniProt Q43125); assay: as above
[6] = target: CRY1N^505 (amino acids 1-505), BiFC fusion (Arabidopsis) (UniProt Q43125); assay: split reporter; BiFC in Nicotiana benthamiana leaves, CRY1N505 and TCP2; light treatment told only in Supplementary Fig. S2C, D
[7] = target: cryptochrome 1 (CRY1), GAL4 DNA-binding domain fusion (Arabidopsis) (UniProt Q43125); assay: two-hybrid; BD-CRY1 in pBridge as bait, AD fusions of TCP2 fragments in pGADT7 as prey, co-transformed into AH109; auxotrophy and liquid (β-gal) assays under different light

## cryptochrome 1 (CRY1), endogenous (from UniProt Q43125 1-681)
[1]
  binding: binds

B1: TEOSINTE-LIKE1, CYCLOIDEA, and PRO… CELL FACTOR 2 (TCP2), GAL4 activation domain fusion (protein, UniProt Q93V43 1-365)
chain: T1 sequence
[2]
  binding: no binding
[3]
  binding: binds
[4]
  binding: binds
[5]
  binding: binds

B2: nYFP-TCP2 (N-terminal region of yellow fluorescent protein fused to TCP2) (protein, UniProt Q93V43 1-365)
chain: T1 sequence
[6]
  binding: binds

B3: TCP2 TCPn domain (amino acids 1-150), GAL4 activation domain fusion (domain or fragment, UniProt Q93V43 1-150)
chain: MIGDLMKNNNNGDVVDNEVNNRLSRWHHNSSRIIRVSRASGGKDRHSKVLTSKGPRDRRVRLSVSTALQFYDLQDRLGYDQPSKAVEWLIKAAEDSISELPSLNNTHFPTDDENHQNQTLTTVAANSLSKSACSSNSDTSKNSSGLSLSR
[7]
  binding: binds

B4: TCP2 TCP fragment (amino acids 1-174), GAL4 activation domain fusion (domain or fragment, UniProt Q93V43 1-174)
chain: MIGDLMKNNNNGDVVDNEVNNRLSRWHHNSSRIIRVSRASGGKDRHSKVLTSKGPRDRRVRLSVSTALQFYDLQDRLGYDQPSKAVEWLIKAAEDSISELPSLNNTHFPTDDENHQNQTLTTVAANSLSKSACSSNSDTSKNSSGLSLSRSELRDKARERARERTAKETKERDH
[7]
  binding: binds

B5: TCP2 R&CT domain (amino acids 151-365), GAL4 activation domain fusion (domain or fragment, UniProt Q93V43 151-365)
chain: SELRDKARERARERTAKETKERDHNHTSFTDLLNSGSDPVNSNRQWMASAPSSSPMEYFSSGLILGSGQQTHFPISTNSHPFSSISDHHHHHPHHQHQEFSFVPDHLISPAESNGGAFNLDFNMSTPSGAGAAVSAASGGGFSGFNRGTLQSNSTNQHQSFLANLQRFPTSESGGGPQFLFGALPAENHHHNHQFQLYYENGCRNSSEHKGKGKN
[7]
  binding: binds weakly

B6: TCP2 CT domain (amino acids 175-365), GAL4 activation domain fusion (domain or fragment, UniProt Q93V43 175-365)
chain: NHTSFTDLLNSGSDPVNSNRQWMASAPSSSPMEYFSSGLILGSGQQTHFPISTNSHPFSSISDHHHHHPHHQHQEFSFVPDHLISPAESNGGAFNLDFNMSTPSGAGAAVSAASGGGFSGFNRGTLQSNSTNQHQSFLANLQRFPTSESGGGPQFLFGALPAENHHHNHQFQLYYENGCRNSSEHKGKGKN
[7]
  binding: binds weakly
